Measurements as given in a collection of fitness landscapes (doi:10.1126/science.1257360).
Some of the results follow.

B1: PhoQ; a variant is named by its letters at X, in order, P23837 (parent)
chain: MKKLLRLFFPLSLRVRFLLATAAVVLVLSLAYGMVALIGYSVSFDKTTFRLLRGESNLFYTLAKWENNKLHVELPENIDKQSPTMTLIYDENGQLLWAQRDVPWLMKMIQPDWLKSNGFHEIEADVNDTSLLLSGDHSIQQQLQEVREDDDDAEMTHSVAVNVYPATSRMPKLTIVVVDTIPVELKSSYMVWSWFIYVLSANLLLVIPLLWVAAWWSLRPIEALAKEVRELEEHNRELLNPATTRELTSLVRNLNRLLKSERERYDKYRTTLTDLTHSLKTPLXXLQXXLRSLRSEKMSVSDAEPVMLEQISRISQQIGYYLHRASMRGGTLLSRELHPVAPLLDNLTSALNKVYQRKGVNISLDISPEISFVGEQNDFVEVMGNVLDNACKYCLEFVEISARQTDEHLYIVVEDDGPGIPLSKREVIFDRGQRVDTLRPGQGVGLAVAREITEQYEGKIVAGESMLGGARMEVIFGRQHSAPKDE

Variants of: B1
Assay: enrichment ratio after two sorts for PhoP signalling (ratio (wild type AVST 3.29)); higher = more functional
Conditions: with PhoP (E. coli)
PPKE was tested, and the enrichment ratio was ≤ 0.25. With HNTR the enrichment ratio was ≤ 0.25. In the case of NHLG, the enrichment ratio is reported as ≤ 0.25. DPGD was tested, and the enrichment ratio was ≤ 0.25. In the case of LCIC, the enrichment ratio is reported as ≤ 0.25. For GDAL, the enrichment ratio was ≤ 0.25. In the case of FPSP, the enrichment ratio is reported as ≤ 0.25. FPGV was tested, and the enrichment ratio was ≤ 0.25. With PHGF the enrichment ratio was ≤ 0.25. In the case of IFCT, the enrichment ratio is reported as ≤ 0.25. With ANVG the enrichment ratio was 2.2. With LWYT the enrichment ratio was ≤ 0.25. With AYKC the enrichment ratio was ≤ 0.25. For NVKG, the enrichment ratio was ≤ 0.25. For GAFP, the enrichment ratio was ≤ 0.25. YYDW was tested, and the enrichment ratio was ≤ 0.25. With ATTF the enrichment ratio was 18.8. WCMG was tested, and the enrichment ratio was ≤ 0.25. For DWIA, the enrichment ratio was ≤ 0.25. For DICH, the enrichment ratio was ≤ 0.25. In the case of KVMD, the enrichment ratio is reported as ≤ 0.25. In the case of RTLV, the enrichment ratio is reported as 0.476. With LYMQ the enrichment ratio was ≤ 0.25. With NKIG the enrichment ratio was ≤ 0.25. In the case of QENI, the enrichment ratio is reported as ≤ 0.25. EKCR was tested, and the enrichment ratio was ≤ 0.25. With MYRY the enrichment ratio was ≤ 0.25. For PNAR, the enrichment ratio was ≤ 0.25. For AVGV, the enrichment ratio was ≤ 0.25. TYVS was tested, and the enrichment ratio was ≤ 0.25. QAPT was tested, and the enrichment ratio was ≤ 0.25. In the case of PCSK, the enrichment ratio is reported as ≤ 0.25. In the case of QSAD, the enrichment ratio is reported as ≤ 0.25. ITSH was tested, and the enrichment ratio was ≤ 0.25. With FGKV the enrichment ratio was ≤ 0.25. For YWTY, the enrichment ratio was 0.554. With RDNV the enrichment ratio was ≤ 0.25. PKSN was tested, and the enrichment ratio was ≤ 0.25. In the case of DYQH, the enrichment ratio is reported as ≤ 0.25. With PWGY the enrichment ratio was ≤ 0.25. With HGAP the enrichment ratio was ≤ 0.25. With QKIG the enrichment ratio was ≤ 0.25. In the case of QSGV, the enrichment ratio is reported as 3.83. For LGWC, the enrichment ratio was ≤ 0.25. Variant AETC has an enrichment ratio of 36.7. INPM was tested, and the enrichment ratio was ≤ 0.25. FIME was tested, and the enrichment ratio was ≤ 0.25. In the case of IGFA, the enrichment ratio is reported as ≤ 0.25. With MRNF the enrichment ratio was ≤ 0.25. With LSCM the enrichment ratio was ≤ 0.25. For RLGD, the enrichment ratio was ≤ 0.25. LGQA was tested, and the enrichment ratio was ≤ 0.25. For DTNK, the enrichment ratio was ≤ 0.25. With NGTT the enrichment ratio was ≤ 0.25. For SMWY, the enrichment ratio was ≤ 0.25. RMNR was tested, and the enrichment ratio was ≤ 0.25. In the case of DLCW, the enrichment ratio is reported as ≤ 0.25. For NHEH, the enrichment ratio was ≤ 0.25. For ICYV, the enrichment ratio was ≤ 0.25. GLIP was tested, and the enrichment ratio was ≤ 0.25. VPKR was tested, and the enrichment ratio was ≤ 0.25. For MYMG, the enrichment ratio was ≤ 0.25. NNNC was tested, and the enrichment ratio was ≤ 0.25. GYVR was tested, and the enrichment ratio was ≤ 0.25. FKLS was tested, and the enrichment ratio was ≤ 0.25. With RQAP the enrichment ratio was ≤ 0.25. For NLPT, the enrichment ratio was ≤ 0.25. LGIH was tested, and the enrichment ratio was ≤ 0.25. RWQY was tested, and the enrichment ratio was ≤ 0.25. With FQCC the enrichment ratio was ≤ 0.25. NIFF was tested, and the enrichment ratio was ≤ 0.25. With YFTL the enrichment ratio was ≤ 0.25. In the case of GRNV, the enrichment ratio is reported as ≤ 0.25. For DEHA, the enrichment ratio was ≤ 0.25. With IWTR the enrichment ratio was ≤ 0.25. With VTEQ the enrichment ratio was ≤ 0.25. FRYK was tested, and the enrichment ratio was ≤ 0.25. In the case of AWHS, the enrichment ratio is reported as ≤ 0.25. In the case of FWQT, the enrichment ratio is reported as ≤ 0.25. With EFPF the enrichment ratio was ≤ 0.25. For GYML, the enrichment ratio was ≤ 0.25. In the case of SIFY, the enrichment ratio is reported as ≤ 0.25. RQSP was tested, and the enrichment ratio was ≤ 0.25. In the case of SSHR, the enrichment ratio is reported as ≤ 0.25. MAMG was tested, and the enrichment ratio was 2.41. In the case of WTCS, the enrichment ratio is reported as ≤ 0.25. For SVLQ, the enrichment ratio was 6.06. With DNYP the enrichment ratio was ≤ 0.25. Work on TASQ yielded an enrichment ratio of 10.7. LIQF was tested, and the enrichment ratio was ≤ 0.25. With GAAR the enrichment ratio was ≤ 0.25. In the case of AAGA, the enrichment ratio is reported as ≤ 0.25. With HDTP the enrichment ratio was ≤ 0.25. For WRKR, the enrichment ratio was ≤ 0.25. Work on THMH yielded an enrichment ratio of 13.2. In the case of QGST, the enrichment ratio is reported as 4.41. DAFQ was tested, and the enrichment ratio was ≤ 0.25. For ISCE, the enrichment ratio was ≤ 0.25. GAHM was tested, and the enrichment ratio was ≤ 0.25. For YAME, the enrichment ratio was ≤ 0.25. With NERN the enrichment ratio was ≤ 0.25. With IHPQ the enrichment ratio was ≤ 0.25. MEMC gave an enrichment ratio of 4.97. In the case of QHSG, the enrichment ratio is reported as ≤ 0.25. RNLP was tested, and the enrichment ratio was ≤ 0.25. LMTK was tested, and the enrichment ratio was ≤ 0.25. For YWFP, the enrichment ratio was ≤ 0.25. With YRCY the enrichment ratio was ≤ 0.25. In the case of QEIV, the enrichment ratio is reported as ≤ 0.25. With PGSM the enrichment ratio was ≤ 0.25. For PAYH, the enrichment ratio was ≤ 0.25. For PPSF, the enrichment ratio was ≤ 0.25. For VKMA, the enrichment ratio was ≤ 0.25. For YDGN, the enrichment ratio was ≤ 0.25. TYCA showed an enrichment ratio of 12.1. With DWQM the enrichment ratio was ≤ 0.25. With LWYE the enrichment ratio was ≤ 0.25. For YHWI, the enrichment ratio was ≤ 0.25. PYGS showed an enrichment ratio of 0.392. In the case of SIDP, the enrichment ratio is reported as ≤ 0.25. In the case of MHVM, the enrichment ratio is reported as ≤ 0.25. In the case of WDQG, the enrichment ratio is reported as ≤ 0.25. In the case of MWSF, the enrichment ratio is reported as ≤ 0.25. For LLHG, the enrichment ratio was ≤ 0.25. EIDA was tested, and the enrichment ratio was ≤ 0.25. Variant GDIV has an enrichment ratio of 8.68. With FLWY the enrichment ratio was ≤ 0.25. With NTAQ the enrichment ratio was ≤ 0.25. With FRCM the enrichment ratio was ≤ 0.25. QHMD was tested, and the enrichment ratio was ≤ 0.25. With FESP the enrichment ratio was ≤ 0.25. Variant TALT has an enrichment ratio of 9.61. QQGI was tested, and the enrichment ratio was ≤ 0.25. RWIH was tested, and the enrichment ratio was ≤ 0.25. With FIHD the enrichment ratio was ≤ 0.25. For VNRF, the enrichment ratio was ≤ 0.25. With RKSH the enrichment ratio was ≤ 0.25. With LAGP the enrichment ratio was ≤ 0.25. For MSFT, the enrichment ratio was 2.91. With RSNY the enrichment ratio was ≤ 0.25. With DPEC the enrichment ratio was ≤ 0.25. In the case of LMAV, the enrichment ratio is reported as ≤ 0.25. With GCYV the enrichment ratio was ≤ 0.25. For HHHF, the enrichment ratio was ≤ 0.25. For YTIE, the enrichment ratio was ≤ 0.25. YIFN was tested, and the enrichment ratio was ≤ 0.25. For FYIR, the enrichment ratio was ≤ 0.25. For TKEW, the enrichment ratio was ≤ 0.25. EACI was tested, and the enrichment ratio was ≤ 0.25. For TGIK, the enrichment ratio was ≤ 0.25. For GMHN, the enrichment ratio was ≤ 0.25. LKHS was tested, and the enrichment ratio was ≤ 0.25. For TSYE, the enrichment ratio was ≤ 0.25. With ENRV the enrichment ratio was ≤ 0.25. With QLSP the enrichment ratio was ≤ 0.25. For DFQF, the enrichment ratio was ≤ 0.25. IGDS was tested, and the enrichment ratio was ≤ 0.25. In the case of LMMT, the enrichment ratio is reported as ≤ 0.25. With DARA the enrichment ratio was ≤ 0.25. In the case of KFKF, the enrichment ratio is reported as ≤ 0.25. For FWST, the enrichment ratio was ≤ 0.25. In the case of KCTM, the enrichment ratio is reported as ≤ 0.25. With ICYC the enrichment ratio was ≤ 0.25. For PFTD, the enrichment ratio was ≤ 0.25. For WANW, the enrichment ratio was ≤ 0.25. For HFFL, the enrichment ratio was ≤ 0.25. With EVLL the enrichment ratio was ≤ 0.25. In the case of YLQL, the enrichment ratio is reported as ≤ 0.25. In the case of HFHI, the enrichment ratio is reported as ≤ 0.25. With HCIK the enrichment ratio was ≤ 0.25. LRHG was tested, and the enrichment ratio was ≤ 0.25. In the case of IRMG, the enrichment ratio is reported as ≤ 0.25. PYMA was tested, and the enrichment ratio was ≤ 0.25. In the case of GFGQ, the enrichment ratio is reported as ≤ 0.25. With PPRT the enrichment ratio was ≤ 0.25. For YDAL, the enrichment ratio was ≤ 0.25. In the case of GGAQ, the enrichment ratio is reported as ≤ 0.25. HGCL showed an enrichment ratio of 5.15. With GRSE the enrichment ratio was ≤ 0.25. In the case of SVML, the enrichment ratio is reported as 8.53. NMHP was tested, and the enrichment ratio was ≤ 0.25. For ITES, the enrichment ratio was ≤ 0.25. MFRK was tested, and the enrichment ratio was ≤ 0.25. For DLWS, the enrichment ratio was ≤ 0.25. With TRMP the enrichment ratio was ≤ 0.25. For WLHK, the enrichment ratio was ≤ 0.25. EMDY was tested, and the enrichment ratio was ≤ 0.25. With RVVG the enrichment ratio was ≤ 0.25. With NQAA the enrichment ratio was ≤ 0.25. TQLG showed an enrichment ratio of 16.7. With FSMK the enrichment ratio was ≤ 0.25. With MVVF the enrichment ratio was ≤ 0.25. VGKE was tested, and the enrichment ratio was ≤ 0.25. For EGML, the enrichment ratio was ≤ 0.25. For RIVH, the enrichment ratio was ≤ 0.25.
